Viability index data for 94 compounds are collected here from the supplement of paper PMC4723716.

Whole data set: some 3,600 compounds, median “viability index relative to DMSO control” near 0.81, cut for the lowest 2% near 0.13. Some of the results follow.
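Further: 384-well serum-free SaLSSA: MitoTracker Red CMXRos staining with saponin lysis, high-content imaging, treated-well particle count divided by plate-mean count of DMSO wells.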

The experiment has as its system Plasmodium falciparum NF54 stage V gametocytes. Description: viability index relative to DMSO control (fraction); higher = less gametocyte killing. The note with it: 1.25 µM, incubation time: 72 h.
For the compound `CCCCNc1c2c(c(C#N)c3nc4ccccc4n13)CCC2`, the viability index amounted to 0.624.

`Cc1cccc(C)c1NC(=O)N1CCN(C2CCCCC2)CC1` yielded a viability index of 1.07. Compound `CC(=O)N(C1=C(N2CCOCC2)C(=O)c2ccccc2C1=O)c1ccc(F)c(F)c1` gave a viability index of 0.0694. `CCCCCCCn1c2c(c(=N)c3ccccc31)CCC2` registered a viability index of 0.477. Take `CCCCCCCC(=O)N1CCN(CCN(Cc2ccc(F)cc2)C(=O)c2c(-c3c(F)cccc3Cl)noc2C)CC1`: the viability index was determined as 0.786. Compound `O=C1C=CC(=O)N1c1ccc(Sc2ccc(N3C(=O)C=CC3=O)cc2)cc1` registered a viability index of 0.868.

For `COc1ccc2nc(C)cc(Nc3cccc(Cl)c3)c2c1`, the viability index was 0.958. To `CCOC(=O)c1c(NC(=O)c2ccc(S(=O)(=O)N(C)c3ccccc3)cc2)sc2c1CCN(C(=O)OCC)C2` belongs 0.81; to `CCN1C(=O)N(CCC(C)C)C2(CCN(Cc3cc(Cl)ccc3O)CC2)C1=O`, 1.14; to `COc1cccc(NC(=O)c2ccc(NCCCN3CC(C)CC(C)C3)c([N+](=O)[O-])c2)c1` (centres undefined), 1.15. Compound `CN(C)CCN1CCN(c2ccnc3cc4ccccc4cc23)CC1` gave a viability index of 0.84.

As to `COc1ccc2[nH]c3c(=O)n(C)cnc3c2c1`, the viability index is 0.735.

For `CCN(CC)S(=O)(=O)c1ccc(-c2csc(Nc3ccc(C)c(C)c3)n2)cc1`, the viability index was found to be 0.427.

The compound `COC(=O)c1ccc(N(C(=O)Cc2c[nH]c3ccccc23)C(C(=O)NC2CCCCC2)c2cccnc2)cc1` (centres undefined) registered a viability index of 0.771. `COc1ccccc1CNC(=O)CN1C(=O)c2cccnc2Oc2ccccc21`: the viability index turned out to be 0.831.

`Oc1ccc(Cl)cc1C1CC(c2ccc(Cl)cc2)=NC(c2ccc(Cl)cc2)N1` (centres undefined): the viability index is 1.06. `OC(CCN1CCN(C(c2ccccc2)c2ccccc2)CC1)c1ccccc1` (centres undefined): the viability index was 0.857. In the case of `CC12CN3CC(C)(CN(C1)C3c1ccccc1)C2=O` (centres undefined), the viability index was found to be 0.83.

Turning to `CCCn1cc(SCC(=O)NCc2ccco2)c2ccccc21`, the viability index came out at 1.34. The compound `CCOc1ccc(NC(=O)c2ccc(C)o2)cc1` returned a viability index of 0.873.

In the case of `C(=NNc1nc2ccccc2[nH]1)c1c[nH]c2ccccc12`, the viability index turned out to be 0.558.

In turn, `COc1ccc(C2=C(Nc3ccc4oc5ccccc5c4c3)c3ccccc3C2=O)cc1` came in with a viability index of 0.672. `CC(C)CN1C(=O)c2ccccc2C(C(=O)Nc2cccc(Cl)c2)C1c1cccs1` (centres undefined) gave a viability index of 0.209. `Cc1cc(C)cc(NC(=O)CCCn2c3ccccc3c(=O)c3cc(C)ccc32)c1` came in with a viability index of 0.788.

As to `N#Cc1c2c(c(N3CCN(c4ccccn4)CC3)n3c1nc1ccccc13)CCC2`, the viability index was 1.16. `N#CN=C(N)c1sc(Nc2ccccc2)nc1N`: the viability index was 0.721. With `COC(=O)C1N(C(=O)OC)c2ccc([N+](=O)[O-])cc2S1(=O)=O` (centres undefined), the viability index was determined as 0.625. In turn, `CC(Oc1cccc(Cl)c1)C(=O)N1CCc2ccccc21` (centres undefined) registered a viability index of 0.845.

With `Cc1cnc(Sc2ccccn2)c([N+](=O)[O-])c1`, the viability index was found to be 1.07. In the case of `CC1=C(CCN(CCCN(C)C)CCCN(C)C)C(C)(C)CCC1`, the viability index was determined as 0.405. `O=C1C2=C(Nc3ccccc3SC2c2ccc(OCc3ccccc3)cc2)c2ccccc21` (centres undefined) gave a viability index of 0.653. For `Cc1ncc([N+](=O)[O-])n1CCOC(=O)c1c(NC(=O)c2ccccc2)sc2c1CCCC2`, the viability index is 0.863. To `CCc1cc2c(Sc3nnc(N)s3)ncnc2s1` belongs 0.777; to `FC(F)(F)c1cccc(NC(=S)N2CCSC2c2ccc(Br)cc2)c1` (centres undefined), 0.398.

For `CCN(CC)CCCNCC(=O)N1c2ccccc2Sc2ccccc21`, the viability index came out at 0.87. In turn, `CCCCCNC(=O)C1CSC(c2ccoc2)N1C(=O)c1ccccc1Cl` (centres undefined) had a viability index of 0.696. `O=C(Nc1ccc(-c2cn3ccsc3n2)cc1)c1ccc(S(=O)(=O)N2CCCCCC2)cc1`: the viability index was found to be 0.804. To `O=C(Nc1ccc(C(F)(F)F)cc1)c1ccc(NCCCN2CCCCCC2)c([N+](=O)[O-])c1` belongs 0.917; to `CCC(=O)NCc1nc2ccccc2n1Cc1ccc(C)cc1`, 0.956. As for `CCOC(=O)C1=C(N)n2c(sc(=Cc3cccnc3)c2=O)=C(C(=O)OC)C1c1cccnc1` (centres undefined), the viability index came out at 1.29. Take `Cc1ccccc1Nc1nc(NCc2ccco2)c2ccccc2n1`: the viability index was 0.601. On to `COc1cc(OC)cc(C(=O)N2CCC(C(=O)Nc3cccc4ccccc34)CC2)c1`, for which the viability index is 0.942.

`Cn1ccnc1C1CCCCN1C(=O)c1cc(COc2ccc(F)cc2Cl)on1` (centres undefined) displayed a viability index of 0.962. For `COc1ccccc1Nc1nc(NCC2CCCO2)c2ccccc2n1` (centres undefined), the viability index came to 0.62. For the compound `C#CC[N+]1(CC#Cc2cccc3ccccc23)CCCCC1`, the viability index is 0.864. `CC1(C)C2CCC1(C)C(NCc1ccccc1O)C2` (centres undefined) came in with a viability index of 0.479. To `CC1=C(CC(=O)c2ccccc2)C(=O)c2ccccc2C1=O` belongs 0.644; to `O=C1CN(C(=O)CCC2CCCCC2)C(c2ccccc2)c2cc(F)ccc2N1` (centres undefined), 1.12; to `CCOC(=O)C1=C(C)NC2=C(C(=O)CC(C)(C)C2)C1c1ccc(Cl)cc1Cl` (centres undefined), 0.826. `CCN(CC)CCNC(=O)C1c2ccccc2C(=O)N(Cc2ccc(F)cc2)C1c1ccc(OC)cc1` (centres undefined): the viability index was determined as 0.791. To `CCOC(=O)c1cc(S(=O)(=O)NCc2ccc(F)cc2)n[nH]1` belongs 1.19; to `O=C(O)CCNc1ccccc1[N+](=O)[O-]`, 0.971. For the compound `O=[N+]([O-])c1cc(NC2OC(CO)C(OC3OC(CO)C(O)C(O)C3O)C(O)C2O)ccc1Cl` (centres undefined), the viability index turned out to be 0.692. `CCCCNC(=O)C(CC)Sc1nnc(-c2ccc(C)cc2)c(-c2ccc(C)cc2)n1` (centres undefined) showed a viability index of 0.884.

Compound `CSc1nc2sc3c(c2c(=O)n1-c1ccccc1)CCN(CCc1ccccc1)C3` returned a viability index of 0.646. For `CCOC(=O)COc1ccc(C2NC(=S)NC(C)=C2C(C)=O)cc1OC` (centres undefined) the value was 0.885. To `CCCCN(C(=O)c1ccccc1C)c1nc(-c2cc(OC)ccc2OC)cs1` belongs 0.624; to `CCN(CC)c1ccc2cc(C(C)=NNC(N)=S)c(=O)oc2c1`, 0.656; to `CCn1c(SCC(=O)N(c2ccccc2)c2ccccc2)nc2sc3c(c2c1=O)CCN(C)C3`, 0.946.

In turn, `CCN(CC)CCNc1nc(C=Cc2ccc(Cl)cc2)nc2cc3ccccc3cc12` gave a viability index of 0.453. To `COc1cccc(NCC(O)Cn2c3ccc(Cl)cc3c3cc(Cl)ccc32)c1` (centres undefined) belongs 0.898. In turn, `Cc1ccc(C(=O)Nc2ccc(-c3nc4cc5ccccc5cc4[nH]3)cc2)cc1[N+](=O)[O-]` yielded a viability index of 0.735. `CC(NS(=O)(=O)c1ccccc1)C(=O)NC1CCCC1` (centres undefined): the viability index came to 1.12. To `Nc1ccc(-c2nc3cc(Cc4ccc5[nH]c(-c6ccc(N)cc6)nc5c4)ccc3[nH]2)cc1` belongs 0.192; to `CC1CC(=Cc2ccncc2)C(=O)C(=Cc2ccncc2)C1` (centres undefined), 0.373. To `COC(=O)C1=C(C)NC2=C(C(=O)CC(c3ccc(OC)cc3)C2)C1c1ccccc1F` (centres undefined) belongs 0.627.

`COCCNC(=O)c1ccc2c(=O)n(Cc3ccc4c(c3)OCO4)c(=S)[nH]c2c1`: the viability index was 0.455.

`CCN1CCN(CC(O)COc2ccc(OC)cc2)CC1` (centres undefined) had a viability index of 0.798. To `Cc1ccc(CNC(=O)c2cc(=O)[nH]c3ccc(S(=O)(=O)N4CCOCC4)cc23)cc1` belongs 0.831; to `O=C(NCCc1ccccc1)C(=O)NN=Cc1ccccc1`, 0.753. To `CCc1ccccc1NC(C)=O` belongs 0.784. `COc1ccccc1C(c1c(C)n[nH]c1O)c1c(C)n[nH]c1O`: the viability index was 0.819. The compound `Cc1oc2c(c1C(=O)N1CCCC1)C(=O)c1ccccc1C2=O` returned a viability index of 0.583. For `Fc1cccc(Nc2nc(NCC3CCCO3)c3ccccc3n2)c1` (centres undefined) the value was 0.84. Take `CCOc1ccc(NC(=O)C2c3ccccc3C(=O)N(CC(C)C)C2c2cccs2)cc1` (centres undefined): the viability index came out at 0.149. Regarding `CCC(C)C(=O)N1CCC(C(=O)Nc2ccc(-c3nc4ccccc4o3)cc2)CC1` (centres undefined), the viability index came out at 0.798. The compound `CCOc1ccc(-c2cc(C)[n+](CCO)c(-c3ccc(OCC)cc3)c2)cc1` came in with a viability index of 0.807. For `CCCc1nc2ccc(NC(=O)c3ccco3)cc2c(=O)n1Cc1ccc(-c2ccccc2)cc1` the value was 0.824. `COc1ccc(-n2nc(C(=O)NCC(=O)Nc3nc4ccccc4s3)c3ccccc3c2=O)cc1Cl` came in with a viability index of 0.952.

`O=C(Nc1ccc(F)c(F)c1)c1ccccc1[N+](=O)[O-]`: the viability index is 1.03. For `O=C(Nc1ccc(-c2nnc(-c3ccccc3)o2)cc1)c1ccc(Br)cc1` the value was 0.946. For `O=C(c1ccc([N+](=O)[O-])o1)N1CCN(c2cccc(Cl)c2)CC1`, the viability index turned out to be 0.468. For `CCCCCOC(=O)C1=C(C)NC2=C(C(=O)CC(C)(C)C2)C1c1ccncc1` (centres undefined) the value was 0.891.

With `COc1ccc2nc(NC(=N)N)nc(C)c2c1`, the viability index was 1.14.

The compound `CC(=NNC(N)=S)C(C)=NNC(N)=S` showed a viability index of 0.27. The compound `CCn1cc(C(=O)NCCC2=CCCCC2)c(=O)c2cc(S(=O)(=O)N(C)C)ccc21` returned a viability index of 0.88. As for `Cc1ncc(CN2CCC(C(=O)Nc3ccc(-n4cccn4)cc3)CC2)s1`, the viability index is 1.04. `Cc1c(C#N)c2ccccc2n1CC(=O)Nc1ccc(Br)cc1` yielded a viability index of 0.322. `CN1C(=O)NC(c2cccnc2)C(C(=O)c2cccs2)C1(O)C(F)(F)F` (centres undefined) showed a viability index of 0.661. In turn, `N#Cc1c(N)nc(SCC(=O)c2ccc([N+](=O)[O-])cc2)c(C#N)c1-c1ccccc1` came in with a viability index of 1.09. To `CCOc1ccc(C2C(C(=O)OCCc3ccccc3)=C(C)NC3=C2C(=O)CC(C)(C)C3)cc1` (centres undefined) belongs 0.95; to `N=c1n(CCN2CCCCC2)c2ccccc2n1CC(O)COc1ccc(Cl)cc1` (centres undefined), 0.746. For `C[n+]1ccccc1C=Cc1ccc(Br)cc1` the value was 0.826; for `Fc1ccc(CSc2nc3cccnc3[nH]2)cc1`, 1.24.
